# Measured values as given in the supplement of paper PMC8728848.
# The list shows a part of the results.
# B1: Gal 8 (Homo sapiens) (protein)
# chain: MLSLNNLQNIIYNPVIPYVGTIPDQLDPGTLIVICGHVPSDADRFQVDLQNGSSVKPRADVAFHFNPRFKRAGCIVCNTLINEKWGREEITYDTPFKREKSFEIVIMVLKDKFQVAVNGKHTLLYGHRIGPEKIDTLGIYGKVNIHSIGFSFSSDLQSTQASSLELTEISRENVPKSGTPQLQTVSPSWDLQGHGSETFCSVLWTRVFLEIAFCRPIGLTVASFQSLPFAARLNTPMGPGRTVVVKGEVNANAKSFNVDLLAGKSKDIALHLNPRLNIKAFVRNSFLQESWGEEERNITSFPFSPGMYFEMIIYCDVREFKVAVNGVHSLEYKHRFKELSSIDTLEINGDIHLLEVRSW
# Columns and labels:
# Assay in all cases: glycan array binding signal (z-score within array); higher = stronger binding
# Details in all cases: glycan notation: IUPAC condensed, linker removed
# [1] = target: GlcNAc(b1-3)Gal(b1-4)GlcNAc(b1-3)Gal(b1-4)GlcNAc(b1-3)Gal(b1-4)GlcNAc(b1-3)Gal(b1-4)GlcNAc(b1-2)Man(a1-3)[GlcNAc(b1-3)Gal(b1-4)GlcNAc(b1-3)Gal(b1-4)GlcNAc(b1-3)Gal(b1-4)GlcNAc(b1-3)Gal(b1-4)GlcNAc(b1-2)Man(a1-6)]Man(b1-4)GlcNAc(b1-4)[Fuc(a1-6)]GlcNAc
# Outline: (§1)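 The Consortium for Functional Glycomics database supplied 3228 glycan arrays, of which those lacking an available protein sequence were dropped. The binding signal, a within-array Z-score, was averaged across arrays of the same protein sequence and across linkers. Negative scores can be read as non-binding.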
# [2] = target: GlcNAc(b1-3)Gal(b1-4)GlcNAc(b1-3)Gal(b1-4)GlcNAc(b1-3)Gal(b1-4)GlcNAc(b1-3)Gal(b1-4)GlcNAc(b1-2)[GlcNAc(b1-3)Gal(b1-4)GlcNAc(b1-3)Gal(b1-4)GlcNAc(b1-3)Gal(b1-4)GlcNAc(b1-3)Gal(b1-4)GlcNAc(b1-6)]Man(a1-6)[GlcNAc(b1-3)Gal(b1-4)GlcNAc(b1-3)Gal(b1-4)GlcNAc(b1-3)Gal(b1-4)GlcNAc(b1-3)Gal(b1-4)GlcNAc(b1-2)Man(a1-3)]Man(b1-4)GlcNAc(b1-4)[Fuc(a1-6)]GlcNAc
# Outline: as §1
# [3] = target: GlcNAc(b1-3)Gal(b1-4)GlcNAc(b1-3)Gal(b1-4)GlcNAc(b1-3)GalNAc
# Outline: as §1
# [4] = target: GlcNAc(b1-3)Gal(b1-4)GlcNAc(b1-3)GalNAc
# Outline: as §1
# [5] = target: GlcNAc(b1-3)Gal(b1-4)GlcNAc(b1-3)[GlcNAc(b1-3)Gal(b1-4)GlcNAc(b1-3)]GalNAc
# Outline: as §1
# [6] = target: GlcNAc(b1-3)Gal(b1-4)GlcNAc(b1-6)[Gal(b1-3)]GalNAc
# Outline: as §1
# [7] = target: GlcNAc(b1-3)Gal(b1-4)GlcNAc(b1-6)[GlcNAc(b1-3)Gal(b1-3)]GalNAc
# Outline: as §1
# [8] = target: GlcNAc(b1-3)Gal(b1-4)GlcNAc(b1-6)[GlcNAc(b1-3)]Gal(b1-4)GlcNAc
# Outline: as §1
# GlcNAc(b1-3)GalNAc = target: GlcNAc(b1-3)GalNAc
# Outline: as §1
# GlcNAc(b1-3)Man = target: GlcNAc(b1-3)Man
# Outline: as §1
# [9] = target: GlcNAc(b1-3)[GlcNAc(b1-4)][GlcNAc(b1-6)]GlcNAc
# Outline: as §1
# [10] = target: GlcNAc(b1-3)[GlcNAc(b1-6)]Gal(b1-4)GlcNAc
# Outline: as §1
# [11] = target: GlcNAc(b1-3)[GlcNAc(b1-6)]GalNAc
# Outline: as §1
# [12] = target: GlcNAc(b1-3)[GlcNAc(b1-6)]GlcNAc(b1-4)GlcNAc
# Outline: as §1
# [13] = target: GlcNAc(b1-4)Gal(b1-4)GlcNAc
# Outline: as §1
# GlcNAc(b1-4)GlcNAc = target: GlcNAc(b1-4)GlcNAc
# Outline: as §1
# [14] = target: GlcNAc(b1-4)GlcNAc(b1-4)GlcNAc
# Outline: as §1
# [15] = target: GlcNAc(b1-4)GlcNAc(b1-4)GlcNAc(b1-4)GlcNAc(b1-4)GlcNAc
# Outline: as §1
# [16] = target: GlcNAc(b1-4)GlcNAc(b1-4)GlcNAc(b1-4)GlcNAc(b1-4)GlcNAc(b1-4)GlcNAc
# Outline: as §1
# [17] = target: GlcNAc(b1-4)[GlcNAc(b1-6)]GalNAc
# Outline: as §1
# [18] = target: GlcNAc(b1-6)Gal(b1-4)GlcNAc
# Outline: as §1
# GlcNAc(b1-6)GalNAc = target: GlcNAc(b1-6)GalNAc
# Outline: as §1
# GlcNAc3Prop(b1-4)GlcNAc = target: GlcNAc3Prop(b1-4)GlcNAc
# Outline: as §1
# [19] = target: GlcNAc6S(b1-3)Gal(b1-4)GlcNAc
# Outline: as §1
# Kdn(a2-3)Gal(b1-3)GalNAc = target: Kdn(a2-3)Gal(b1-3)GalNAc
# Outline: as §1
# Kdn(a2-3)Gal(b1-3)GlcNAc = target: Kdn(a2-3)Gal(b1-3)GlcNAc
# Outline: as §1
# Kdn(a2-3)Gal(b1-4)Glc = target: Kdn(a2-3)Gal(b1-4)Glc
# Outline: as §1
# Kdn(a2-3)Gal(b1-4)GlcNAc = target: Kdn(a2-3)Gal(b1-4)GlcNAc
# Outline: as §1
# [20] = target: Kdn(a2-3)Gal(b1-4)[Fuc(a1-3)]GlcNAc
# Outline: as §1
# Kdn(a2-6)Gal(b1-4)GlcNAc = target: Kdn(a2-6)Gal(b1-4)GlcNAc
# Outline: as §1
# [21] = target: Man(a1-2)Man(a1-2)Man(a1-3)Man
# Outline: as §1
# [22] = target: Man(a1-2)Man(a1-2)Man(a1-6)[Man(a1-3)]Man
# Outline: as §1
# Man(a1-2)Man(a1-3)Man = target: Man(a1-2)Man(a1-3)Man
# Outline: as §1
# [23] = target: Man(a1-2)Man(a1-3)[Man(a1-2)Man(a1-6)]Man
# Outline: as §1
# [24] = target: Man(a1-2)Man(a1-3)[Man(a1-2)Man(a1-6)]Man(a1-6)[Man(a1-2)Man(a1-2)Man(a1-3)]Man
# Outline: as §1
# [25] = target: Man(a1-2)Man(a1-3)[Man(a1-2)Man(a1-6)]Man(a1-6)[Man(a1-2)Man(a1-2)Man(a1-3)]Man(b1-4)GlcNAc(b1-4)GlcNAc
# Outline: as §1
# [26] = target: Man(a1-2)Man(a1-3)[Man(a1-6)]Man(a1-6)[Man(a1-2)Man(a1-3)]Man(b1-4)GlcNAc(b1-4)GlcNAc
# Outline: as §1
# [27] = target: Man(a1-2)Man(a1-6)[Man(a1-3)]Man(a1-6)[Man(a1-2)Man(a1-2)Man(a1-3)]Man
# Outline: as §1
binder,measurement,setting,value
B1,glycan array binding signal (z-score),[1],3.35
same,glycan array binding signal (z-score),[2],6.06
same,glycan array binding signal (z-score),[3],0.069
same,glycan array binding signal (z-score),[4],-0.355
same,glycan array binding signal (z-score),[5],-0.35
same,glycan array binding signal (z-score),[6],-0.328
same,glycan array binding signal (z-score),[7],-0.264
same,glycan array binding signal (z-score),[8],-0.355
same,glycan array binding signal (z-score),GlcNAc(b1-3)GalNAc,-0.379
same,glycan array binding signal (z-score),GlcNAc(b1-3)Man,-0.316
same,glycan array binding signal (z-score),[9],-0.354
same,glycan array binding signal (z-score),[10],-0.41
same,glycan array binding signal (z-score),[11],-0.386
same,glycan array binding signal (z-score),[12],-0.727
same,glycan array binding signal (z-score),[13],-0.2
same,glycan array binding signal (z-score),GlcNAc(b1-4)GlcNAc,-0.326
same,glycan array binding signal (z-score),[14],-0.325
same,glycan array binding signal (z-score),[15],-0.375
same,glycan array binding signal (z-score),[16],-0.392
same,glycan array binding signal (z-score),[17],-0.356
same,glycan array binding signal (z-score),[18],-0.395
same,glycan array binding signal (z-score),GlcNAc(b1-6)GalNAc,-0.384
same,glycan array binding signal (z-score),GlcNAc3Prop(b1-4)GlcNAc,-0.204
same,glycan array binding signal (z-score),[19],-0.358
same,glycan array binding signal (z-score),Kdn(a2-3)Gal(b1-3)GalNAc,-0.266
same,glycan array binding signal (z-score),Kdn(a2-3)Gal(b1-3)GlcNAc,0.561
same,glycan array binding signal (z-score),Kdn(a2-3)Gal(b1-4)Glc,-0.124
same,glycan array binding signal (z-score),Kdn(a2-3)Gal(b1-4)GlcNAc,-0.024
same,glycan array binding signal (z-score),[20],-0.353
same,glycan array binding signal (z-score),Kdn(a2-6)Gal(b1-4)GlcNAc,-0.355
same,glycan array binding signal (z-score),[21],-0.388
same,glycan array binding signal (z-score),[22],-0.391
same,glycan array binding signal (z-score),Man(a1-2)Man(a1-3)Man,-0.383
same,glycan array binding signal (z-score),[23],-0.377
same,glycan array binding signal (z-score),[24],-0.354
same,glycan array binding signal (z-score),[25],-0.534
same,glycan array binding signal (z-score),[26],-0.532
same,glycan array binding signal (z-score),[27],-0.344
